Experimental data: PubChem BioAssay AID360 (National Center for Advancing Translational Sciences (NCATS), 2006)
Among all 48,000 compounds or so, about 550 (1.1%) were called active. About 4% were inconclusive and are not listed. Rule as the data show it: active = potency below about 15 µM; inconclusive = mostly about 16 µM to 33 µM; inactive = weaker than that. The list shows a part of the results.

The compounds below were run against Lysosomal acid glucosylceramidase (Homo sapiens) (UniProt P04062) (assay: Glucocerebrosidase). Details: purified enzyme, resorufin glucoside fluorescence (screen aimed at inhibitors), 20 min.
Chain of UniProt P04062 (P04062 whole entry, looked up): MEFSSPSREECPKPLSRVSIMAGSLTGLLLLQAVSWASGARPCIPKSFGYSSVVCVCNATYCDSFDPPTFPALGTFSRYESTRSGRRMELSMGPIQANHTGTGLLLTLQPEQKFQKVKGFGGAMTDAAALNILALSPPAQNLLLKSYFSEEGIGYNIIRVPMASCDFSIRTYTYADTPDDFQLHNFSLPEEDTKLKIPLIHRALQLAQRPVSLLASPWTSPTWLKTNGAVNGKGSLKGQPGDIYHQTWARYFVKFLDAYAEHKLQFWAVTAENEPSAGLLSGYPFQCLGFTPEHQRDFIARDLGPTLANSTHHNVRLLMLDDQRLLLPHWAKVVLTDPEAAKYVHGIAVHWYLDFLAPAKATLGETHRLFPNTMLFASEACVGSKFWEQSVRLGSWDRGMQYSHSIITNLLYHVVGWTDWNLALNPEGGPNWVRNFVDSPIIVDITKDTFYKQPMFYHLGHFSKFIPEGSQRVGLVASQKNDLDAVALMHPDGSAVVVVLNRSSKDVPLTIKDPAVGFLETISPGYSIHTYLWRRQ
Method in brief: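 Compounds titrated against 0.2 nM normal enzyme, 30 uM resorufin beta-D-glucopyranoside substrate, citrate/phosphate buffer with taurocholate and tween-20, pH 5.9. Reaction ran 20 min at room temperature; fluorescence (Ex 548/Em 600) gave AC50.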
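Also: the screen sought inhibitors.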
Potency is read from the fitted curve at half-maximal effect.

Potency, inactive:
O=C(Nc1ccc2c(c1)OCO2)[C@@H]1[C@@H]2C(=O)N(C3CCCCC3)C(=O)[C@@H]2C2c3ccccc3C=CN21 (some centres undefined) > 76.9 µM
COc1ccc(NCc2cc3cc(OC)ccc3[nH]c2=O)cc1 > 76.9 µM
COCCCn1c(SCC(=O)OC2CCCCC2)nnc1-c1ccco1 > 76.9 µM
O=C(C1CCC(C(=O)N2CCCC2)CC1)N1CCCC1 (centres undefined) > 76.9 µM
COc1ccccc1Nc1ncnc2c1oc1ccccc12
Cc1nc2c(c(=O)n1Cc1ccco1)c1nc3ccccc3nc1n2Cc1ccccc1 > 76.9 µM
CCc1nnc2n1N=C(c1ccc(-c3ccc(Cl)cc3Cl)o1)CS2 > 76.9 µM
O=C1NC(NS(=O)(=O)c2ccccc2)(C(F)(F)F)C(=O)N1Cc1cccnc1 (centres undefined) > 76.9 µM
Cn1nnc2cc(NC(=O)N3CC4(C)CC3CC(C)(C)C4)ccc21 (centres undefined) > 76.9 µM
CCOC(=O)c1c(C)oc(NC(=O)COc2ccc(Cl)cc2C)c1C#N > 76.9 µM
COc1ccc(-c2cc(C(=O)N3CCN(C(c4ccccc4)c4ccccc4)CC3)no2)cc1 > 76.9 µM
Cc1cc(C)c(NC(=O)NC(=O)c2cccc(F)c2)c(C)n1
CCOC(=O)c1ccc2c(c1)nc(SC/C(O)=C(\C#N)c1nc3ccccc3[nH]1)n2CC > 76.9 µM
CC1Cc2ccccc2N1C(=O)C1CCCN(S(=O)(=O)c2cccc3nsnc23)C1 (centres undefined) > 76.9 µM
CC(C)CCOc1ccc(C2(C)NC(=O)N(CN3CCOCC3)C2=O)cc1 (centres undefined) > 76.9 µM
CCn1c(SCC(N)=O)nc2ccccc2c1=O > 76.9 µM
COc1ccccc1CN1C(=O)[C@@H]2C(CC(N)=O)NC3(C(=O)Nc4c3ccc(Cl)c4C)[C@@H]2C1=O (some centres undefined) > 76.9 µM
CCn1c(SCC(=O)Nc2sc(C)c(C)c2C#N)nnc1C(C)C > 76.9 µM
N#Cc1nc(COc2ccccc2)oc1NCCN1CCOCC1 > 76.9 µM
Cn1c(=O)c2c(nc(SCC(=O)N3CCc4ccccc4C3)n2C)n(C)c1=O > 76.9 µM
Cc1cc(C)c(S(=O)(=O)Nc2cccc3nsnc23)c(C)c1 > 76.9 µM
COC(=O)C1=C(C)NC2=C(C(=O)CCC2)C1c1cccs1 (centres undefined) > 76.9 µM
Cc1cc(NC(=O)c2cc(C)on2)n(-c2ccccc2)n1 > 76.9 µM
CCc1ccc(OCc2ccc(C(=O)NCc3ccccn3)o2)cc1 > 76.9 µM
